These results are taken from US10112926B2 (priority 2014, dated 2018).

SMILES strings stand for the structures. Structures can show the parent of a compound that is named as a salt.

Chain of PI 3-kinase delta (O00329 whole entry, looked up): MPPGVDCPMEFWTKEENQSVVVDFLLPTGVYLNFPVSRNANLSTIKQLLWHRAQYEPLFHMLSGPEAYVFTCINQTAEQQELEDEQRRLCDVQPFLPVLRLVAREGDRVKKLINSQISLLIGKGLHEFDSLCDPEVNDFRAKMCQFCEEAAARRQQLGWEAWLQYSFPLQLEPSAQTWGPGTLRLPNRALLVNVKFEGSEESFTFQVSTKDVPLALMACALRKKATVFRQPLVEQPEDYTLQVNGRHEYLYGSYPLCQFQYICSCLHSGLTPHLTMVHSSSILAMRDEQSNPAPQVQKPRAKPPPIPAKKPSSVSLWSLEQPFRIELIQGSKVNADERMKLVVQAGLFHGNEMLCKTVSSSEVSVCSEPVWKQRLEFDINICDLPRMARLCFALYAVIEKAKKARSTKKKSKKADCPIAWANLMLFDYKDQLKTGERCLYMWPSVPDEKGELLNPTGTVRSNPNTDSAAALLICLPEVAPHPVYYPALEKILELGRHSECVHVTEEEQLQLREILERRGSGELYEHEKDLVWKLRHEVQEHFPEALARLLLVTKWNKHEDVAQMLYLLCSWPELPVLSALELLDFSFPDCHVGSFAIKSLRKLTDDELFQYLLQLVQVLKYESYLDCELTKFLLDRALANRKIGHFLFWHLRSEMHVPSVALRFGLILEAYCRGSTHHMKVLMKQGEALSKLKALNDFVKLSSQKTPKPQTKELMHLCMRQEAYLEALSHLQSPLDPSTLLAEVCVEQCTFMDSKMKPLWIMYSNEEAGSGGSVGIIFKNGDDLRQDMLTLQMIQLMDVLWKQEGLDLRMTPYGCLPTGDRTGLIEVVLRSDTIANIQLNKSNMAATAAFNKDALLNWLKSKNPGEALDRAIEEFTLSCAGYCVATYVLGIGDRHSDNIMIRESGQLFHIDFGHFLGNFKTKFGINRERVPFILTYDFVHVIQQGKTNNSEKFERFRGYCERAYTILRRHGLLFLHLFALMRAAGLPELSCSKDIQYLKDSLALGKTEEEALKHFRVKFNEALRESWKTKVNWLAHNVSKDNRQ
Chain of PI 3-kinase delta (P27986 whole entry partner, looked up): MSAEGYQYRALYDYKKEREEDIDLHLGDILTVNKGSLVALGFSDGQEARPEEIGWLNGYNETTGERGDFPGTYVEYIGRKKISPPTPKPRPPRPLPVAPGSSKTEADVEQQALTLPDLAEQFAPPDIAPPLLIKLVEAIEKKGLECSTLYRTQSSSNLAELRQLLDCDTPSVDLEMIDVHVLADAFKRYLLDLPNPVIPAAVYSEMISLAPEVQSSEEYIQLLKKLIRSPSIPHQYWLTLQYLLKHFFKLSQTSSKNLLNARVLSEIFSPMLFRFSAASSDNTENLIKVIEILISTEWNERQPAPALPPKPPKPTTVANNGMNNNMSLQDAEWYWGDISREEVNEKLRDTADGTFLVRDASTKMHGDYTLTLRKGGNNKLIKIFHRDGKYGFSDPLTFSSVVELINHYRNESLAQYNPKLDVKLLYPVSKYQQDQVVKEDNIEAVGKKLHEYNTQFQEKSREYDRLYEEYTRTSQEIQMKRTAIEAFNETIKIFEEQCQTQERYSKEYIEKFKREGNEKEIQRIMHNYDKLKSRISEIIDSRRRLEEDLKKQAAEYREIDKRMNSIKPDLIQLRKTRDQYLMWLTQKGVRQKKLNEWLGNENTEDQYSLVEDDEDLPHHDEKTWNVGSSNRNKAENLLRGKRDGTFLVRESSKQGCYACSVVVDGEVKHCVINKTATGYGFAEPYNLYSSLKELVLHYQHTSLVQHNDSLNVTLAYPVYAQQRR
Chain of PI 3-kinase alpha (P42336 whole entry, looked up): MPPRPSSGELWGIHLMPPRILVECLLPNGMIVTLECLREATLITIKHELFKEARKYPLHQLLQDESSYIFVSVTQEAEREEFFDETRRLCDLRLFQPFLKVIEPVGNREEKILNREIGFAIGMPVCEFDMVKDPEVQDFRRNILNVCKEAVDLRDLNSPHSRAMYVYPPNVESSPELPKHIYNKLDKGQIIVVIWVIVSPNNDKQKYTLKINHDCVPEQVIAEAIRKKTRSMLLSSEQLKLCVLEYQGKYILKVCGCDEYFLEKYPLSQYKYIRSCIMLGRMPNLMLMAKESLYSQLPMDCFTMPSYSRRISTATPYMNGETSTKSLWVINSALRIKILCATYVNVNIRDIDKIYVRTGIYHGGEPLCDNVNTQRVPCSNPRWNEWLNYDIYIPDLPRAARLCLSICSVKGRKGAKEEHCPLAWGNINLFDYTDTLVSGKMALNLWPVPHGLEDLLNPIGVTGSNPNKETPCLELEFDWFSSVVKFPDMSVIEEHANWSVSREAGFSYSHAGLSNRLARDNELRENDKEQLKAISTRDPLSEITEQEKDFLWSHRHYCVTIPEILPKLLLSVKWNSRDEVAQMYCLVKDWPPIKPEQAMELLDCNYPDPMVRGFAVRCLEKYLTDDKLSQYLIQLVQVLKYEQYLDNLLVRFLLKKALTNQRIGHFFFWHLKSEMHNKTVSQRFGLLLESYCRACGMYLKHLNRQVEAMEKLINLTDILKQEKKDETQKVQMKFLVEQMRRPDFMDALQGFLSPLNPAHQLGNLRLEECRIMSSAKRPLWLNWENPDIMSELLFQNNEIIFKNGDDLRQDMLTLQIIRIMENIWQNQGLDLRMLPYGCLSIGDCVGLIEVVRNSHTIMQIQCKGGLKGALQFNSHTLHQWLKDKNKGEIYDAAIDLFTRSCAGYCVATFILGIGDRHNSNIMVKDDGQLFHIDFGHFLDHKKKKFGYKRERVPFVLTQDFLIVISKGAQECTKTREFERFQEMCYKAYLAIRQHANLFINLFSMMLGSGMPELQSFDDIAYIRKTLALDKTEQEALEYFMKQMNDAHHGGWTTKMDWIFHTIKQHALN
Chain of PI 3-kinase alpha (P27986 whole entry partner, looked up): as the sequence (P27986 whole entry partner, looked up) above

The first experiment concerns the target PI 3-kinase alpha (Homo sapiens (Human), UniProt P42336).
Assay: not given
The conditions noted are these: read-out: Assay A PI3Kα IC50.
On to `Cc1cnn(-c2cc(-c3cc(S(=O)(=O)NCC(C)(C)O)ccc3C)cnc2N)c1` [Example 60, 3-(6-Amino-5-(4-methyl-1H-pyrazol-1-yl)pyridin-3-yl)-N-(2-hydroxy-2-methylpropyl)-4-methylbenzenesulfonamide], for which the IC50 (usually the concentration needed to halve the response being measured) worked out at 9.4 µM.

The next experiment addresses PI 3-kinase delta (Homo sapiens (Human), UniProt O00329).
Assay: not given
The conditions noted are these: read-out: Assay F PI3Kδ IC50.
In the case of `Cc1ncc(-c2cc(-c3cc(S(=O)(=O)NC4CC5(CC(O)C5)C4)ccc3C)cnc2N)s1` (centres unmarked) [Example 28, 3-(6-Amino-5-(2-methylthiazol-5-yl)pyridin-3-yl)-N-(6-hydroxyspiro[3.3]heptan-2-yl)-4-methylbenzenesulfonamide], the IC50 amounted to 0.2 µM.

Another experiment relates to IL-8-induced neutrophil shape change in human whole blood. Briefly: cells. The following applies: read-out: Assay L WBSC IC50.
As to `Cc1ccc(S(=O)(=O)NCCC(C)(C)O)cc1-c1cnc(N)c(-c2ccncc2)c1` [Example 18, 3-(2-Amino-[3,4′]bipyridinyl-5-yl)-N-(3-hydroxy-3-methyl-butyl)-4-methyl-benzenesulfonamide], the IC50 was determined as 1.2 µM.

As for `Cc1noc(-c2cc(-c3cc(S(=O)(=O)N[C@H]4CC[C@H](CO)CC4)ccc3C)cnc2N)n1` [Example 19, trans 3-[6-Amino-5-(3-methyl-[1,2,4]oxadiazol-5-yl)-pyridin-3-yl]-N-(4-hydroxymethyl-cyclohexyl)-4-methyl-benzenesulfonamide hydrochloride], the IC50 was 0.61 µM.

Turning to `Cc1cc(-c2cc(-c3cc(S(=O)(=O)N[C@@H]4CNC[C@H]4O)ccc3C)cnc2N)on1` [Example 19.4, 3-(6-amino-5-(3-methylisoxazol-5-yl)pyridin-3-yl)-N-(trans-4-hydroxypyrrolidin-3-yl)-4-methylbenzenesulfon-amide acetic acid salt], the half-inhibitory concentration (IC50) came to 29.1 µM.

Take `Cc1cc(-c2cc(-c3cc(S(=O)(=O)N[C@H]4CCC[C@H](O)C4)ccc3C)cnc2N)on1` [Example 19.16, 3-(6-amino-5-(3-methylisoxazol-5-yl)pyridin-3-yl)-N-((1S,3S)-3-hydroxycyclohexyl)-4-methylbenzenesulfon-amide trifluoroacetic acid salt]: the IC50 was determined as 1.86 µM.

In the case of `Cc1cc(-c2cc(-c3cc(S(=O)(=O)N4CCCC(C)(O)CC4)ccc3C)cnc2N)on1` (centres unmarked) [Example 19.21, 1-((3-(6-amino-5-(3-methylisoxazol-5-yl)pyridin-3-yl)-4-methylphenyl)sulfonyl)-4-methylazepan-4-ol trifluoroacetic acid salt], the IC50 came to 8.26 µM.

For `Cc1cc(-c2cc(-c3cc(S(=O)(=O)NCC4COC4)ccc3C)cnc2N)on1` [Example 25, 3-(6-Amino-5-(3-methylisoxazol-5-yl)pyridin-3-yl)-4-methyl-N-(oxetan-3-ylmethyl)benzenesulfonamide], the IC50 was found to be 1.03 µM.

In the case of `Cc1ncc(-c2cc(-c3cc(S(N)(=O)=O)ccc3C)cnc2N)o1` [Example 33, 3-(6-Amino-5-(2-methyloxazol-5-yl)pyridin-3-yl)-4-methylbenzenesulfonamide], the IC50 was 19.4 µM.

On to `Cc1ccc(S(=O)(=O)NCC(C)(C)O)cc1-c1cnc(N)c(-c2cc(C3CC3)no2)c1` [Example 35.3, 3-(6-Amino-5-(3-cyclopropylisoxazol-5-yl)pyridin-3-yl)-N-(2-hydroxy-2-methylpropyl)-4-methylbenzenesulfonamide hydrochloride], for which the IC50 came out at 4.81 µM.

Regarding `CCN1CCC[C@@H]1CNS(=O)(=O)c1ccc(C)c(-c2cnc(N)c(-c3cc(C)no3)c2)c1` [Example 37.27, (R)-3-(6-Amino-5-(3-methylisoxazol-5-yl)pyridin-3-yl)-N-((1-ethylpyrrolidin-2-yl)methyl)-4-methylbenzenesulfonamide], the IC50 was 0.69 µM.

On to `Cc1cc(-c2cc(-c3cc(S(=O)(=O)NC[C@@H]4CCOC4)ccc3C)cnc2N)on1` [Example 38, (S)-3-(6-Amino-5-(3-methylisoxazol-5-yl)pyridin-3-yl)-4-methyl-N-((tetrahydrofuran-3-yl)methyl)benzenesulfonamide], for which the IC50 was determined as 0.65 µM.

As to `Cc1cc(-c2cc(-c3cc(S(=O)(=O)NCC(F)(F)F)ccc3C)cnc2N)on1` [Example 39, 3-(6-Amino-5-(3-methylisoxazol-5-yl)pyridin-3-yl)-4-methyl-N-(2,2,2-trifluoroethyl)benzenesulfonamide], the IC50 was found to be 2 µM.

Take `Cc1ccc(S(=O)(=O)NCC(C)(C)O)cc1-c1cnc(N)c(-c2cc(C(=O)N3CCOCC3)no2)c1` [Example 42, 3-(6-Amino-5-(3-(morpholine-4-carbonyl)isoxazol-5-yl)pyridin-3-yl)-N-(2-hydroxy-2-methylpropyl)-4-methylbenzenesulfonamide]: the IC50 was determined as 0.9 µM.

For the compound `Cc1cc(-c2cc(-c3cc(S(=O)(=O)NCC4(CO)COC4)ccc3C)cnc2N)on1` [Example 50, 3-(6-Amino-5-(3-methylisoxazol-5-yl)pyridin-3-yl)-N-((3-(hydroxymethyl)oxetan-3-yl)methyl)-4-methylbenzenesulfonamide], the IC50 came out at 0.64 µM.

Consider `Cc1noc(-c2cc(-c3cc(S(=O)(=O)NCC4(O)CCOCC4)ccc3C)cnc2N)n1` [Example 51, 3-(6-Amino-5-(3-methyl-1,2,4-oxadiazol-5-yl)pyridin-3-yl)-N-((4-hydroxytetrahydro-2H-pyran-4-yl)methyl)-4-methylbenzenesulfonamide], for which the IC50 came out at 1.23 µM.

Take `Cc1noc(-c2cc(-c3cc(S(=O)(=O)NCC4(CO)COC4)ccc3C)cnc2N)n1` [Example 52, 3-(6-Amino-5-(3-methyl-1,2,4-oxadiazol-5-yl)pyridin-3-yl)-N-((3-(hydroxymethyl)oxetan-3-yl)methyl)-4-methylbenzenesulfonamide]: the IC50 turned out to be 1.75 µM.

Take `Cc1cc(-c2cc(-c3cc(S(=O)(=O)NCC4(O)CCOCC4)ccc3C)cnc2N)on1` [Example 54, 3-(6-Amino-5-(3-methylisoxazol-5-yl)pyridin-3-yl)-N-((4-hydroxytetrahydro-2H-pyran-4-yl)methyl)-4-methylbenzenesulfonamide]: the IC50 stood at 1.02 µM.

For `Cc1noc(-c2cc(-c3cc(S(=O)(=O)NCC4(O)COC4)ccc3C)cnc2N)n1` [Example 56, 3-(6-Amino-5-(3-methyl-1,2,4-oxadiazol-5-yl)pyridin-3-yl)-N-((3-hydroxyoxetan-3-yl)methyl)-4-methylbenzenesulfonamide], the IC50 turned out to be 1.71 µM.

Take `Cc1ncc(-c2cc(-c3cc(S(=O)(=O)NCC4(CO)COC4)ccc3C)cnc2N)o1` [Example 67, 3-(6-Amino-5-(2-methyloxazol-5-yl)pyridin-3-yl)-N-((3-(hydroxymethyl)oxetan-3-yl)methyl)-4-methylbenzenesulfonamide]: the IC50 stood at 0.67 µM.

With `Cc1ncc(-c2cc(-c3cc(S(=O)(=O)NCC4(CO)COC4)ccc3C)cnc2N)s1` [Example 68, 3-(6-Amino-5-(2-methylthiazol-5-yl)pyridin-3-yl)-N-((3-(hydroxymethyl)oxetan-3-yl)methyl)-4-methylbenzenesulfonamide], the IC50 amounted to 0.63 µM.

As to `Cc1cccc(NS(=O)(=O)c2ccc(C)c(-c3cnc(N)c(-c4nc(C)no4)c3)c2)n1` [Example 72, 3-(6-Amino-5-(3-methyl-1,2,4-oxadiazol-5-yl)pyridin-3-yl)-4-methyl-N-(6-methylpyridin-2-yl)benzenesulfonamide], the IC50 was 19.4 µM.

With `Cc1ncc(-c2cc(-c3cc(S(N)(=O)=O)ccc3C)cnc2N)s1` [Example 74, 3-(6-Amino-5-(2-methylthiazol-5-yl)pyridin-3-yl)-4-methylbenzenesulfonamide], the IC50 came to 16.7 µM.

On to `Cc1cc(-c2cc(-c3cc(S(=O)(=O)N[C@H]4CC[C@H](CO)CC4)ccc3C)cnc2N)ccn1` [Example 77, trans-3-(2-Amino-2′-methyl-[3,4′-bipyridin]-5-yl)-N-(−4-(hydroxymethyl)cyclohexyl)-4-methylbenzenesulfonamide hydrochloride], for which the IC50 was 0.92 µM.

In the case of `Cc1ccc(S(=O)(=O)N[C@H]2CC[C@H](O)CC2)cc1-c1cnc(N)c(-c2nc(CC(F)(F)F)no2)c1` [Example 78, trans-3-(6-Amino-5-(3-(2,2,2-trifluoroethyl)-1,2,4-oxadiazol-5-yl)pyridin-3-yl)-N-((1r,4r)-4-hydroxycyclohexyl)-4-methylbenzenesulfonamide], the IC50 came out at 1.97 µM.

For the compound `Cc1ncc(-c2cc(-c3cc(S(=O)(=O)NCC4(O)COC4)ccc3C)cnc2N)s1` [Example 83.3, 3-(6-amino-5-(2-methylthiazol-5-yl)pyridin-3-yl)-N-((3-hydroxyoxetan-3-yl)methyl)-4-methylbenzenesulfonamide], the IC50 is 0.76 µM.

For `Cc1noc(-c2cc(-c3cc(S(=O)(=O)NCC(C)(C)O)c(F)cc3C)cnc2N)n1` [Example 85, 5-(6-Amino-5-(3-methyl-1,2,4-oxadiazol-5-yl)pyridin-3-yl)-2-fluoro-N-(2-hydroxy-2-methylpropyl)-4-methylbenzenesulfonamide], the IC50 was found to be 1.42 µM.

For `Cc1ccc(S(=O)(=O)NCC(C)(C)O)cc1-c1cnc(N)c(-c2cnco2)c1` [Example 94a, 3-(6-amino-5-(oxazol-5-yl)pyridin-3-yl)-N-(2-hydroxy-2-methylpropyl)-4-methylbenzenesulfonamide], the IC50 amounted to 0.72 µM.

Regarding `Cc1ncc(-c2cc(-c3cc(S(=O)(=O)N[C@H]4CC[C@H](O)CC4)ccc3C)cnc2N)o1` [Example 98, 3-(6-amino-5-(2-methyloxazol-5-yl)pyridin-3-yl)-N-((1r,4r)-4-hydroxycyclohexyl)-4-methylbenzenesulfonamide hydrochloride], the IC50 was determined as 0.31 µM.

As for `Cc1noc(-c2cc(-c3cc(S(=O)(=O)NCC(C)(C)O)c(C)cc3C)cnc2N)n1` [Example 100], the IC50 worked out at 3.24 µM.

On to `Cc1nnc(-c2cc(-c3cc(S(=O)(=O)NCC(C)(C)O)ccc3C)cnc2N)s1` [Example 102, 3-(6-amino-5-(5-methyl-1,3,4-thiadiazol-2-yl)pyridin-3-yl)-N-(2-hydroxy-2-methylpropyl)-4-methylbenzenesulfonamide], for which the IC50 was 0.98 µM.

As for `Cc1nnc(-c2cc(-c3cc(S(=O)(=O)NCCC(C)(C)O)ccc3C)cnc2N)s1` [Example 105, 3-(6-amino-5-(5-methyl-1,3,4-thiadiazol-2-yl)pyridin-3-yl)-N-(3-hydroxy-3-methylbutyl)-4-methylbenzenesulfonamide], the IC50 is 1.92 µM.
